The supplement of paper PMC6206098
± gives the uncertainty stated by the source. The sequences are guide strands of siRNAs; only the seed at positions 2 to 7 varies.

Legend:
[1] = system: HeyA8; assay: cell viability relative to lipid-only control; higher = less toxic; details: concentration: 10 nM; 96 h; Homo sapiens
[2] = system: M565; assay: as above; details: concentration: 10 nM; 96 h; Mus musculus
[3] = system: H460; assay: as above; details: concentration: 10 nM; 96 h; Homo sapiens
[4] = system: 3LL; assay: cell viability relative to siNT1 control; HeyA8 human ovarian and H460 human lung cancer; M565 mouse liver and 3LL mouse lung cancer; siNT1 is a non-toxic control siRNA; higher = less toxic; details: concentration: 10 nM; 96 h; Mus musculus;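 also: Luminescence-based viability of cells reverse transfected in 384-well plates with lipid-complexed siRNAs built on a non-toxic 19mer backbone whose passenger strand carries 2′-O-methyl groups at positions 1 and 2, triplicates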
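For cell viability relative to lipid-only control in this document: reverse lipid transfection in 384-well plates, in triplicate, of duplexes on a non-toxic 19mer backbone with passenger strand 2′-O-methylated at positions 1 and 2, luminescence viability read-out.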

Sequence	cell viability [1]	cell viability [2]	cell viability [3]	cell viability [4]
UUAUGCUACAUGUAAACCAAA	12.7 ± 0.36%	13.3 ± 1.4%	19.5 ± 2%	19.2 ± 3.6%
UAGUCUGACAUGUAAACCAAA	52.4 ± 0.96%	21.3 ± 5.8%	72.8 ± 14%	87.8 ± 3.1%
UGGCCGCACAUGUAAACCAAA	7.39 ± 0.8%	6.8 ± 3.4%	24.4 ± 0.53%	8.13 ± 4.3%
UCGCUAAACAUGUAAACCAAA	78.2 ± 5.3%	86.4 ± 12%	79.1 ± 17%	104 ± 13%
UGAGGAAACAUGUAAACCAAA	72.3 ± 4.5%	28 ± 7.7%	68.4 ± 10%	83.4 ± 20%
UUUGCGAACAUGUAAACCAAA	99.2 ± 2.6%	96.8 ± 13%	86.2 ± 8.2%	98.8 ± 3%
UAGGGUAACAUGUAAACCAAA	50.6 ± 5.2%	54.5 ± 12%	80.9 ± 2.1%	90.9 ± 9.3%
UCACAUGACAUGUAAACCAAA	92.8 ± 3.9%	56.3 ± 2.6%	21.1 ± 0.85%	94.1 ± 12%
UCGCCGUACAUGUAAACCAAA	23.3 ± 1.7%	35.8 ± 5.8%	50.5 ± 2.8%	72.7 ± 11%
UGGUCGGACAUGUAAACCAAA	25.8 ± 3.3%	41.7 ± 4%	17.6 ± 4.2%	57.5 ± 1.1%
UUAUUAGACAUGUAAACCAAA	76.1 ± 4.1%	96.7 ± 6.2%	64 ± 4.8%	40.4 ± 8.1%
UUGGUAUACAUGUAAACCAAA	49.9 ± 5.8%	89.3 ± 24%	59.8 ± 4.5%	96.9 ± 8.6%
UAAAGAGACAUGUAAACCAAA	88 ± 6%	80.5 ± 20%	72.4 ± 12%	108 ± 9.8%
UCCGAGAACAUGUAAACCAAA	79 ± 5.5%	75.7 ± 17%	55.2 ± 2.1%	108 ± 24%
UGCUGAAACAUGUAAACCAAA	59.3 ± 5.7%	33.5 ± 2.9%	73.1 ± 8.8%	79 ± 1.5%
UCUAUGCACAUGUAAACCAAA	43 ± 1.8%	38.1 ± 11%	40.3 ± 1.4%	66.8 ± 13%
UUUUCCUACAUGUAAACCAAA	65.8 ± 2.5%	84.7 ± 5.2%	53.4 ± 12%	33.8 ± 10%
UAAGUUUACAUGUAAACCAAA	57.5 ± 6.8%	64.2 ± 11%	78.1 ± 15%	79.3 ± 3.4%
UUUUUGUACAUGUAAACCAAA	74.4 ± 12%	109 ± 15%	45.2 ± 5.5%	56.8 ± 4.8%
UGGUCCCACAUGUAAACCAAA	29.9 ± 5.3%	8.36 ± 0.18%	16.4 ± 1.3%	18.3 ± 1.5%
UCUUCGAACAUGUAAACCAAA	83.5 ± 3.3%	68.2 ± 23%	79.5 ± 12%	93.7 ± 16%
UCUGCGUACAUGUAAACCAAA	81.5 ± 4.2%	39.8 ± 4.8%	61.3 ± 3.5%	96.9 ± 20%
UCGGAAGACAUGUAAACCAAA	80.8 ± 11%	65.3 ± 7.2%	66.6 ± 12%	86.4 ± 17%
UAAGAUCACAUGUAAACCAAA	54.2 ± 20%	58.4 ± 11%	63.6 ± 7%	77.3 ± 6.9%
UAUUCGAACAUGUAAACCAAA	99.6 ± 12%	85.7 ± 3.4%	67.3 ± 3.5%	99.3 ± 11%
UAUCCCGACAUGUAAACCAAA	85.3 ± 6.6%	90.3 ± 14%	88 ± 4.8%	67.5 ± 4.3%
UGUCACUACAUGUAAACCAAA	54.3 ± 6.7%	18.5 ± 4%	28.7 ± 8.8%	46.6 ± 4.4%
UCCAGUAACAUGUAAACCAAA	82.6 ± 4%	46.9 ± 7%	77.7 ± 20%	106 ± 22%
UCGCAUAACAUGUAAACCAAA	82.4 ± 1.8%	80.9 ± 7%	58 ± 7.4%	95.2 ± 21%
UGCUCCGACAUGUAAACCAAA	34.5 ± 2.7%	66.9 ± 1.7%	37.7 ± 4.7%	51.1 ± 9.6%
